About 540 (0.36%) of roughly 150,000 compounds showed an effect of 50% or more. The list shows a part of the results.
These molecules were tested on Plasmodium falciparum (assay: Primary screen in NF54 nanoGlo assay, in single point, at 2uM, 72h; a lower Z score goes with more inhibition). Conditions: timepoint 72 hour.
Type: functional, Erythrocyte

First: Cc1cc(C)c(S(=O)(=O)Nc2cccc(C(=O)N3CCC[C@H]3C(=O)NC(C)C)c2)cc1C
Second: Cc1ccc(-n2nc(C(=O)NCC3CC3)c(=O)n(Cc3ccccc3)c2=O)cc1C
The “% Inhibition” value of the first is higher: 15% for the first, -11% for the second.

Going from `O=C(Cn1cnc(-c2noc(C3CC3)n2)c1)NCc1ccccc1Cl` to `COc1ccccc1CCNC(=O)[C@@H]1CCCN1C1CCOCC1`, the “% Inhibition” value rises from -13% to -8%.

Compared with `O=C(CCNS(=O)(=O)c1ccc(F)c(F)c1)NCCS(=O)(=O)c1ccccc1`, `C[C@@H](CC(=O)Nc1cc(S(=O)(=O)N2CCOCC2)ccc1OCC(F)(F)F)c1ccccc1` is higher in “% Inhibition” value: -7% for the first, 2% for the second.

First: CCn1nccc1-c1cc(NC(C)C)nc(N)n1
Second: Cc1cc(-c2cccc(C(=O)NCCCn3ccnn3)c2)cc(C)n1
The “% Inhibition” value of the first is lower: -7% for the first, 5% for the second.

Going from `Cc1ccc(C)c(-c2n[nH]cc2CN2CCN(C3CCN(C(C)C)CC3)[C@@H](CCO)C2)c1` to `CN1C[C@@H](O)CNS(=O)(=O)c2ccccc2O[C@H]2CN(CC3CC3)C[C@H]21`, the “% Inhibition” value rises from -13% to 1%.

Going from `Cc1ccc(Br)c(NC(=O)C(=O)NCc2cc[nH]n2)c1` to `COc1ccc(NC(=O)CNC(=O)c2cn(-c3ccccc3OC)c(=O)c3ccccc23)cc1OC`, the “% Inhibition” value falls from -1% to -2%.

`Cc1n[nH]cc1CN(C)C(=O)[C@]1(c2ccccc2)CC12CCCC2` and `COc1ccccc1OC1(C(=O)O)CCN(Cc2cccnc2N)CC1` are the same in “% Inhibition” value: -13% for the first, -13% for the second.

First: CC1Cc2cc(F)ccc2C(C)N1C(=O)CCC(=O)c1cnn(C)c1 (centres undefined)
Second: Cc1ccc(-c2nc(N3C[C@@H](C)O[C@@H](C)C3)ncc2-c2cncnc2)cc1
The “% Inhibition” value of the first is higher: -7% for the first, -11% for the second.

Compared with `CCOc1cccc(Cn2c(=O)c3sccc3n(Cc3nc(-c4ccccc4C)no3)c2=O)c1`, `CCOc1ccc2c(c1)N=C(c1ccc(F)cc1)N=C(c1ccc(N(C)C)cc1)N2` is higher in “% Inhibition” value: -9% for the first, -3% for the second.

First: CN(CC(N)=O)CC(=O)Nc1ccnn1CC1CCCCC1
Second: COC(=O)C[C@H](NC(=O)c1oc(C)nc1C)C1CCCCC1
The “% Inhibition” value of the first is higher: -3% for the first, -4% for the second.

First: COc1ccc(-n2c(-c3ccccc3)cc(C(=O)N3CCN(c4cccc(C(F)(F)F)c4)CC3)c2C)c(OC)c1
Second: Cc1cnc(NC[C@]2(CO)COCCN2C)nc1
The “% Inhibition” value of the first is lower: -7% for the first, 0% for the second.

Compared with `Cc1cc(C)c(S(=O)(=O)Nc2cccc(C(=O)N3CCC[C@H]3C(=O)NC(C)C)c2)cc1C`, `Cc1ccc(-n2nc(C(=O)NCC3CC3)c(=O)n(Cc3ccccc3)c2=O)cc1C` is higher in Z score: -1.72 for the first, 2.04 for the second.

Going from `O=C(Cn1cnc(-c2noc(C3CC3)n2)c1)NCc1ccccc1Cl` to `COc1ccccc1CCNC(=O)[C@@H]1CCCN1C1CCOCC1`, the Z score falls from 1.67 to 0.85.

Going from `O=C(CCNS(=O)(=O)c1ccc(F)c(F)c1)NCCS(=O)(=O)c1ccccc1` to `C[C@@H](CC(=O)Nc1cc(S(=O)(=O)N2CCOCC2)ccc1OCC(F)(F)F)c1ccccc1`, the Z score falls from 1.38 to -0.33.

First: CCn1nccc1-c1cc(NC(C)C)nc(N)n1
Second: Cc1cc(-c2cccc(C(=O)NCCCn3ccnn3)c2)cc(C)n1
The Z score of the first is higher: 1.14 for the first, -0.76 for the second.

Compared with `Cc1ccc(C)c(-c2n[nH]cc2CN2CCN(C3CCN(C(C)C)CC3)[C@@H](CCO)C2)c1`, `CN1C[C@@H](O)CNS(=O)(=O)c2ccccc2O[C@H]2CN(CC3CC3)C[C@H]21` is lower in Z score: 1.16 for the first, -0.2 for the second.

Going from `Cc1ccc(Br)c(NC(=O)C(=O)NCc2cc[nH]n2)c1` to `COc1ccc(NC(=O)CNC(=O)c2cn(-c3ccccc3OC)c(=O)c3ccccc23)cc1OC`, the Z score rises from 0.05 to 0.28.

First: Cc1n[nH]cc1CN(C)C(=O)[C@]1(c2ccccc2)CC12CCCC2
Second: COc1ccccc1OC1(C(=O)O)CCN(Cc2cccnc2N)CC1
The Z score of the first is higher: 1.84 for the first, 1.52 for the second.

Going from `CC1Cc2cc(F)ccc2C(C)N1C(=O)CCC(=O)c1cnn(C)c1` (centres undefined) to `Cc1ccc(-c2nc(N3C[C@@H](C)O[C@@H](C)C3)ncc2-c2cncnc2)cc1`, the Z score rises from 0.96 to 1.72.

Compared with `CCOc1cccc(Cn2c(=O)c3sccc3n(Cc3nc(-c4ccccc4C)no3)c2=O)c1`, `CCOc1ccc2c(c1)N=C(c1ccc(F)cc1)N=C(c1ccc(N(C)C)cc1)N2` is lower in Z score: 1.11 for the first, 0.32 for the second.

First: CN(CC(N)=O)CC(=O)Nc1ccnn1CC1CCCCC1
Second: COC(=O)C[C@H](NC(=O)c1oc(C)nc1C)C1CCCCC1
The Z score of the first is lower: 0.39 for the first, 0.53 for the second.

Compared with `COc1ccc(-n2c(-c3ccccc3)cc(C(=O)N3CCN(c4cccc(C(F)(F)F)c4)CC3)c2C)c(OC)c1`, `Cc1cnc(NC[C@]2(CO)COCCN2C)nc1` is lower in Z score: 1.16 for the first, -0.02 for the second.
